# According to PubChem BioAssay AID1458 (National Center for Advancing Translational Sciences (NCATS), 2008):
# About 5,900 (2.8%) of roughly 210,000 compounds were called active. Inconclusive results, whose numbers are uncertain, are shown with a selection of clear calls. The call rests on the fitted dose curve; in most records, active means well fitted activation curve with a large enough effect; inconclusive means small, poorly fitted or top-dose-only effect; inactive means no such curve, though single readings can be large or run the other way. A potency beside an inconclusive call is a rough fit, not a confirmed value.
# Assay: qHTS Assay for Enhancers of SMN2 Splice Variant Expression; further: nearly all actives have a fitted effect of over 55% in size; on activity change, positive = activation: % of control where 0% means no effect
# Conditions: HEK293 SMN2-luciferase splicing reporter, luminescence, 30-36 h; activity change, positive = activation: at 46.1 µM (top of the series)
# How it was run: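 HEK293 cells carry an SMN2 […]–luciferase reporter in which exon 7 inclusion puts luciferase in frame. Cells were plated 10-12 h before compound addition, then incubated 30-36 h at 37C. ONE-Glo luminescence was read; sodium butyrate at 4.5 mM final served as control.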
# Potency means the concentration at half of the fitted maximal effect; tags describe the fitted curve by direction and shape.
SMILES,Potency,"activity change, positive = activation"
COc1ccc(S(=O)(=O)Oc2ccc3ccccc3c2)cc1,"inconclusive: 5.62 µM [activator, full curve]",
CC(=O)c1ccc(NC(=O)c2ccc(C)c(Br)c2)cc1,active: 11.2 µM,
COc1ccc(OCCOc2ccc(C)nc2[N+](=O)[O-])cc1,"inconclusive: 15.8 µM [activator, single point]",
CCOc1ccc2nc(SC3CC(=O)N(c4ccc(OC)cc4OC)C3=O)sc2c1 (stereo not given),"inconclusive: 20 µM [activator, partial curve, poor fit]",
Cc1ccccc1C(=O)N/N=C/c1ccsc1C,active: 15.8 µM,
C=CCOc1ccc(/C(O)=C2/C(=O)C(=O)N(CCCN3CCOCC3)C2c2ccc(OC)cc2)cc1 (stereo not given),"inconclusive: 0.0126 µM [activator, full curve, poor fit]",
COc1cccc(CSc2nc3ccccc3[nH]2)c1,active: 15.8 µM,
Fc1cccc(Cn2ccc(-c3ccc4c(c3)OCO4)n2)c1,"inconclusive: 35.5 µM [activator, single point]",
O=C(O)C1CC=CCC1C(=O)Nc1ccc(S(=O)(=O)N2CCCc3ccccc32)cc1 (stereo not given),"inconclusive: 35.5 µM [activator, single point]",
O=C(O)c1ccc2oc(SCC(=O)N3CCCCC3)nc2c1,active: 12.6 µM,
NNC(=O)COc1cccc2cccnc12,inactive,
Cn1cc(Br)c(C(=O)Nc2ncc(Br)s2)n1,active: 4.47 µM,
COc1ccc(-c2nnc(SCCC(=O)O)n2-c2ccccc2)cc1,"inconclusive: 6.31e-05 µM [activator, full curve, poor fit]",
CCOCCn1c(COc2ccc(C)cc2)nc2ccccc21,"inconclusive: 14.1 µM [activator, single point]",
CCOc1ccccc1N1CC(c2nc3ccccc3n2CCOc2ccc(OC)cc2)CC1=O (stereo not given),inactive,
COc1ccc(C)cc1NC(=O)c1cc2c(s1)CCC2,"inconclusive: 0.224 µM [activator, single point]",
COc1cc(-c2cc(C(=O)Nc3c(Cl)cc(Cl)cc3Cl)c3ccccc3n2)cc(OC)c1OC,inactive,
Cc1cc(C)n(-c2nc3cc(Cl)c(Cl)cc3nc2Nc2ccc(F)cc2C)n1,inactive,
O=C(Nc1ccccn1)c1cc2ccccc2o1,active: 0.708 µM,
O=c1[nH]c(SCc2ccc(Cl)cc2)nc2[nH]ncc12,"inconclusive: 12.6 µM [activator, single point]",
COc1cccc(-c2ccc3c(N)c(C(=O)Nc4ccc(Cl)cc4F)sc3n2)c1,"inconclusive: 8.91 µM [activator, partial curve]",
CC(C)C(=O)c1cn(CC(=O)NCc2ccco2)c2ccccc12,"inconclusive: 15.8 µM [activator, single point]",
CC(=O)N1C(O)CC(C)N1c1ccccc1 (stereo not given),"inconclusive: 10 µM [activator, partial curve, poor fit]",
CC(=O)N1N=C(c2cccs2)CC1c1cccs1 (stereo not given),"inconclusive: 35.5 µM [activator, single point]",

SMILES,Potency,"activity change, positive = activation"
COc1ccc(N/C=C\C(=O)c2ccc3c(c2)OCO3)cc1,"inconclusive: 20 µM [activator, partial curve, poor fit]",
CCOC(=O)c1cc(-c2ccccc2)sc1NC(=O)C(C)OC(=O)c1ccncc1 (stereo not given),"inconclusive: 35.5 µM [activator, single point]",
Cc1cc(C)c(C#N)c(SCC(=O)OC2CCCCC2)n1,"inconclusive: 0.0032 µM [activator, full curve, poor fit]",
Nc1ccc(-c2nc3ccc(-c4nc5ccc(N)cc5[nH]4)cc3[nH]2)cc1,"inconclusive: 17.8 µM [activator, full curve, poor fit]",
CC(=O)Nc1ccc(S(=O)(=O)Nc2ccc(-c3ccc4nnc(C)n4n3)cc2)cc1,"inconclusive: 11.2 µM [activator, single point]",
CC(C)C[C@@H](CC(=O)N[C@@H](CCC(=O)O)CC(=O)O)NC(=O)[C@@H]1CNCC[C@H]1NC(=O)C[C@H](CCCN)NC(=O)C[C@H](Cc1ccccc1)NC(=O)[C@@H]1CNCC[C@H]1N,inactive,
COc1cccc(/C(C)=N/NC(=O)c2ccc(N(C)C)cc2)c1,"inconclusive: 17.8 µM [activator, partial curve, poor fit]",
Cc1cccc(NC(=O)c2sc(C)nc2C)c1,"inconclusive: 17.8 µM [activator, partial curve]",
CC/C(=N\NC(=O)c1ccc(N(C)C)cc1)c1ccccc1,"inconclusive: 25.1 µM [activator, single point]",
CC1CCCN(c2nc(NCc3ccco3)nc(N)c2[N+](=O)[O-])C1 (stereo not given),inactive,
CCN(C(=O)CN1CCN(c2ccc(OC)cc2)CC1)c1c(N)n(Cc2ccccc2)c(=O)[nH]c1=O,"inconclusive: 0.0032 µM [activator, full curve]",
CCn1ncc(C(=O)Nc2cc(C)on2)c1C,"inconclusive: 35.5 µM [activator, single point]",
Cc1ccc(C)c(NC(=O)c2ccccn2)c1,inactive,
Cc1ccc(NC(=O)Nc2cccc([N+](=O)[O-])c2)nc1,"inconclusive: 35.5 µM [activator, single point]",
Nc1cc2c(nc3c4ccccc4c(N)cc3[n+]2-c2cccc3ccccc23)c2ccccc12 (tested in a mixture with another compound),,inactive: -13.6% [at 9.22 µM]
COc1ccc(-n2c(SC(C)C(=O)Nc3ncc(Cl)cc3Cl)nc3ccccc32)cc1 (stereo not given),"inconclusive: 2.51 µM [activator, full curve]",
Cc1cccn2c(Nc3ccccc3)c(-c3ccc(N4CCOCC4)cc3)nc12,inactive,
COc1ccc(CC(=O)OCc2cc3ccccc3[nH]c2=O)cc1,"inconclusive: 20 µM [activator, partial curve]",
COc1ccc(C2=NN(C(=O)CSc3nnc(C)c(=O)n3N)C(c3ccco3)C2)cc1 (stereo not given),,inconclusive: 48.9% [activator]
Cc1cc(C(=O)NP(=O)(N2CCOCC2)N2CCOCC2)c(C)n1-c1ccc(Br)cc1,"inconclusive: 6.31 µM [activator, partial curve]",
COC(=O)c1cc2c(s1)CS(=O)C2 (stereo not given),"inconclusive: 12.6 µM [activator, single point]",
CCOC(=O)c1csc(NC(=O)c2ccc(N3C(=O)CCC3=O)cc2)n1,inactive,
CN(C(=O)c1cc2c(=O)oc3ccccc3c2s1)c1ccc(F)cc1,inactive,
Clc1ccc(-c2cn3cccnc3n2)cc1Cl,"inconclusive: 25.1 µM [activator, single point]",

SMILES,Potency,"activity change, positive = activation"
Cc1c(Cc2ccccc2)c(=O)oc2cc(OCC(N)=O)ccc12,"inconclusive: 5.62 µM [activator, partial curve, poor fit]",
CCCCC1C(C#N)=C(C)NC2=C1C(=O)CC(C)(C)C2 (stereo not given),"inconclusive: 5.62 µM [activator, single point]",
NS(=O)(=O)c1ccc(N/C=C/C(=O)c2ccc(Br)cc2)cc1,"inconclusive: 14.1 µM [activator, partial curve, poor fit]",
CCSc1nnc(Nc2ccccc2)s1,"inconclusive: 12.6 µM [activator, single point]",
Brc1cc2c(cc1/C=N/Nc1nc3ccccc3s1)OCO2,"inconclusive: 3.55 µM [activator, partial curve, poor fit]",
COC(=O)c1ccc(C(NC(=O)OCc2ccccc2)/C(=C/[C@@H](C)C(=O)NCc2ccncc2)c2cccnc2)cc1 (stereo not given in full),inactive,
CC(C)(C)NC(=O)NC(=O)CSc1nnc2ccccn12,"inconclusive: 20 µM [activator, single point]",
O=C(c1csnn1)N1CCC[C@@]2(CCN(Cc3ccccc3)C2)C1,inactive,
COc1ccc(C2OC(=O)CC2C(=O)NCc2ccc(Cl)cc2)cc1OC (stereo not given),"inconclusive: 31.6 µM [activator, single point]",
Cc1ccc(-c2noc(CNc3ccccc3)n2)cc1,"inconclusive: 17.8 µM [activator, partial curve, poor fit]",
O=C(CSCc1ccc(Cl)cc1)N1CCCCC1,"inconclusive: 0.316 µM [activator, partial curve]",
Cc1ccc(N2CC(O)=C(c3ccccc3)C2=N)cc1,inactive,
CCC(=O)Nc1cccc(-n2nnnc2SCC(=O)N2CCCCC2)c1,inactive,
O=C(C1CC1)N1CCN(c2nc3ccccc3s2)CC1,"inconclusive: 14.1 µM [activator, single point]",
CC1CCc2sc(C(=O)N=Nc3c(O)[nH]c4ccccc34)cc2C1 (stereo not given),"inconclusive: 17.8 µM [activator, single point]",
OC(COCc1ccc(Cl)cc1)CN1CCc2ccccc2C1 (stereo not given),"inconclusive: 4.47 µM [activator, partial curve, poor fit]",
Cc1cnc(C(=O)Nc2ccc(-n3cnnn3)cc2)cn1,"inconclusive: 11.2 µM [activator, single point]",
O=C(c1ncc[nH]1)c1ccccc1C(=O)N1CCOCC1,"inconclusive: 0.282 µM [activator, full curve, poor fit]",
COc1cc(C)c(S(=O)(=O)Nc2ccccc2F)cc1C,active: 2.24 µM,
COc1ccc(N2CSC3=C(C#N)C(c4cc(OC)ccc4OC)CC(=O)N3C2)c(OC)c1 (stereo not given),inactive,
CCOC(=O)c1c(C)oc2c1c1c(c3ccccc32)OCN(Cc2cccnc2)C1,inactive,
CCn1cnc2cc(NCc3cccs3)ccc21,"inconclusive: 14.1 µM [activator, single point]",
